Reference: US12421282B2, “Compositions and methods for the treatment of metabolic and liver disorders” (priority 2021, dated 2025)
Like-named read-outs stand apart in the source and are kept apart here. At least one peptide structure holds a part that was inferred or is arguable (an end, a ring closure or a residue). At least one compound was matched to its structure with a doubt left. Some entries repeat one wording, which the source may state once for all of them. *1 amine or outer side, *2 acyl side, *3 side chain or, on linkers, in order; H or OH if unused. Where a SMILES comes first, the peptide text is derived from it. Side-chain parts run from the residue outwards. [ ]: non-standard residue; d: D form. The star is where a group is joined. Nonadecanoyl(19-PO3H2) = O=C(CCCCCCCCCCCCCCCCCCP(=O)(O)O)*; γGlu = O=C(O)[C@H](CCC(=O)[*:2])N[*:1]; AEEA = NCCOCCOCC(=O)O; Aib = CC(C)(N)C(=O)O

Key:
[1] = tested on: NASH induced in mice by Gubra amylin NASH (GAN) diet; assay: Biological effects in GAN diet-induced NASH mice; format: in vivo; conditions: 10 nmol/kg, after two weeks
[2] = molecular target: human recombinant GLP-1 receptor (Homo sapiens, UniProt P43220); assay: TagLite binding assay, GLP-1 receptor, without and with 2% HSA; conditions: for GLP-1 receptor Ratio of HSA/No HSA: IC50 with 2% HSA / IC50 with no HSA
Chain of human recombinant GLP-1 receptor (P43220 24-463): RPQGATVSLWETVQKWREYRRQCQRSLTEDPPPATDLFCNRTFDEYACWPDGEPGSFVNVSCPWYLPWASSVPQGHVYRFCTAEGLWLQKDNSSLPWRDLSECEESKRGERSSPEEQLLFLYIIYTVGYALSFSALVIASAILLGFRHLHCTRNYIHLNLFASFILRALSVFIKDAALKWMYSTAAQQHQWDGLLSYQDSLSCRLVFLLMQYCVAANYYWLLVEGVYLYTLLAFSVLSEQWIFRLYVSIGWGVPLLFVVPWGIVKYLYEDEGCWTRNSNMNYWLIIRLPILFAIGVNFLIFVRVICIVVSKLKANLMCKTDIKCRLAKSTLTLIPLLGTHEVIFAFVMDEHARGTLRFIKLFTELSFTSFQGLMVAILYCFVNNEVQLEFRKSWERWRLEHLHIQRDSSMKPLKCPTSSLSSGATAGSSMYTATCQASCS
From the text: (§1) Binding data for Compounds 15-25, for two human recombinant G protein coupled receptors, GLP-1 and GIP, was obtained using […]® binding assay and Epics Therapeutics cell lines. The binding assay was repeated in the presence of 2% human serum albumin (HSA). Compounds 16, 21, and 22 have an HSA ratio for the GLP-1 receptor of 7.1, 7.6, and 7.8, respectively. Compounds 15, 18, and 23 have an HSA ratio for the GIP receptor of 7.3, 4.3, and 6.4, respectively. A lower HSA ratio indicates greater binding affinity for the receptor than for albumin when compared to a compound with a greater HSA ratio.

[3] = molecular target: T1, human recombinant GIP receptor (Homo sapiens, UniProt P48546); assay: TagLite binding assay, GIP receptor, without and with 2% HSA; conditions: for GIP receptor Ratio of HSA/No HSA: IC50 with 2% HSA / IC50 with no HSA
T1 sequence (P48546 22-466): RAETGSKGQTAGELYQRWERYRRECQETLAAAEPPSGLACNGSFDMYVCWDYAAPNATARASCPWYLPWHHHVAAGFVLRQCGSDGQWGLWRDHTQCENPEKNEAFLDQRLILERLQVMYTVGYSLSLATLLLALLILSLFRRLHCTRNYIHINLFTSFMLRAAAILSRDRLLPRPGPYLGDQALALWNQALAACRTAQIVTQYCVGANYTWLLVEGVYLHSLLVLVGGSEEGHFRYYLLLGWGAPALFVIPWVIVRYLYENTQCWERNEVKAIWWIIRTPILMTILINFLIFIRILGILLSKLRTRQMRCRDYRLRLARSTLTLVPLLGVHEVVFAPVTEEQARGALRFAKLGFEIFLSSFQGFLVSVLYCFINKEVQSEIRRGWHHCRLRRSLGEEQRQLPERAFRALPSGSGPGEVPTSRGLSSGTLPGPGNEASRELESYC
From the text: as §1

| Structure (SMILES) | total liver Galectin-3 as compared to tirzepatide, histological quantitative assessment (FIG. 3) [1] | total liver lipids as compared to tirzepatide or vehicle (FIG. 2) [1] | GLP-1 receptor Ratio of HSA/No HSA [2] | GIP receptor Ratio of HSA/No HSA [3] | relative and total liver triglycerides as compared to tirzepatide (FIG. 1) [1] | IC50 ([2]; 2% human serum albumin, read-out: GLP-1 receptor IC50 2% HSA) [nM] | IC50 ([2]; no HSA, read-out: GLP-1 receptor IC50 No HSA) [nM] | IC50 ([3]; 2% human serum albumin, read-out: GIP receptor IC50 2% HSA) [nM] | IC50 ([3]; no HSA, read-out: GIP receptor IC50 No HSA) [nM] |
| --- | --- | --- | --- | --- | --- | --- | --- | --- | --- |
| CC[C@H](C)[C@H](NC(=O)[C@H](CC(C)C)NC(=O)[C@H](Cc1c[nH]c2ccccc12)NC(=O)[C@H](CCC(N)=O)NC(=O)[C@@H](NC(=O)[C@H](Cc1ccccc1)NC(=O)[C@H](C)NC(=O)[C@H](CCCCNC(=O)COCCOCCNC(=O)COCCOCCNC(=O)CC[C@H](NC(=O)CCCCCCCCCCCCCCCCCCP(=O)(O)O)C(=O)O)NC(=O)[C@H](CCC(N)=O)NC(=O)[C@H](C)NC(=O)[C@@H](NC(=O)[C@H](CCCCN)NC(=O)[C@H](CC(=O)O)NC(=O)[C@H](CC(C)C)NC(=O)C(C)(C)NC(=O)[C@@H](NC(=O)[C@H](CO)NC(=O)[C@H](Cc1ccc(O)cc1)NC(=O)[C@H](CC(=O)O)NC(=O)[C@H](CO)NC(=O)[C@@H](NC(=O)[C@H](Cc1ccccc1)NC(=O)[C@@H](NC(=O)CNC(=O)[C@H](CCC(=O)O)NC(=O)C(C)(C)NC(=O)[C@@H](N)Cc1ccc(O)cc1)[C@@H](C)O)[C@@H](C)O)[C@@H](C)CC)C(C)C)C(C)C)C(=O)N[C@@H](C)C(=O)NCC(=O)NCC(=O)N1CCC[C@H]1C(=O)N[C@@H](CO)C(=O)N[C@@H](CO)C(=O)NCC(=O)N[C@@H](C)C(=O)N1CCC[C@H]1C(=O)N1CCC[C@H]1C(=O)N1CCC[C@H]1C(=O)N[C@@H](CO)C(N)=O [Compound 17] (H-Y[Aib]EGTFTSDYSI[Aib]LDKVAQK([AEEA-AEEA-γGlu-Nonadecanoyl(19-PO3H2)])AFVQWLIAGGPSSGAPPPS-NH2) | stastistically significantly lower total liver Galectin-3 than tirzepatide | stastistically significantly lower total liver lipids than tirzepatide | 11.9 | 7.7 |  |  |  |  |  |
| CC[C@H](C)[C@H](NC(=O)[C@H](CCCCN)NC(=O)[C@H](CC(=O)O)NC(=O)[C@H](CC(C)C)NC(=O)[C@H](Cc1ccccc1)NC(=O)[C@@H](NC(=O)[C@H](CO)NC(=O)[C@H](Cc1ccc(O)cc1)NC(=O)[C@H](CC(=O)O)NC(=O)[C@H](CO)NC(=O)[C@@H](NC(=O)[C@H](Cc1ccccc1)NC(=O)[C@@H](NC(=O)CNC(=O)[C@H](CCC(=O)O)NC(=O)C(C)(C)NC(=O)[C@@H](N)Cc1ccc(O)cc1)[C@@H](C)O)[C@@H](C)O)[C@@H](C)CC)C(=O)N[C@@H](C)C(=O)N[C@@H](CCC(N)=O)C(=O)N[C@@H](CCCCNC(=O)COCCOCCNC(=O)COCCOCCNC(=O)CC[C@H](NC(=O)CCCCCCCCCCCCCCCCCCP(=O)(O)O)C(=O)O)C(=O)N[C@@H](C)C(=O)N[C@@H](Cc1ccccc1)C(=O)N[C@H](C(=O)N[C@@H](CCC(N)=O)C(=O)N[C@@H](Cc1c[nH]c2ccccc12)C(=O)N[C@@H](CC(C)C)C(=O)N[C@H](C(=O)N[C@@H](C)C(=O)NCC(=O)NCC(=O)N1CCC[C@H]1C(=O)N[C@@H](CO)C(=O)N[C@@H](CO)C(=O)NCC(=O)N[C@@H](C)C(=O)N1CCC[C@H]1C(=O)N1CCC[C@H]1C(=O)N1CCC[C@H]1C(=O)N[C@@H](CO)C(N)=O)[C@@H](C)CC)C(C)C [Compound 18] (H-Y[Aib]EGTFTSDYSIFLDKIAQK([AEEA-AEEA-γGlu-Nonadecanoyl(19-PO3H2)])AFVQWLIAGGPSSGAPPPS-NH2) |  |  | 9.2 | 4.3 |  |  |  |  |  |
| CC[C@H](C)[C@H](NC(=O)[C@H](CC(C)C)NC(=O)[C@H](Cc1c[nH]c2ccccc12)NC(=O)[C@H](CCC(N)=O)NC(=O)[C@@H](NC(=O)[C@H](Cc1ccccc1)NC(=O)[C@H](C)NC(=O)[C@H](CCC(N)=O)NC(=O)[C@H](CCC(N)=O)NC(=O)[C@H](C)NC(=O)[C@@H](NC(=O)[C@H](CCCCNC(=O)COCCOCCNC(=O)COCCOCCNC(=O)CC[C@H](NC(=O)CCCCCCCCCCCCCCCCCCP(=O)(O)O)C(=O)O)NC(=O)[C@H](CC(=O)O)NC(=O)[C@H](CC(C)C)NC(=O)C(C)(C)NC(=O)[C@@H](NC(=O)[C@H](CO)NC(=O)[C@H](Cc1ccc(O)cc1)NC(=O)[C@H](CC(=O)O)NC(=O)[C@H](CO)NC(=O)[C@@H](NC(=O)[C@H](Cc1ccccc1)NC(=O)[C@@H](NC(=O)CNC(=O)[C@H](CCC(=O)O)NC(=O)C(C)(C)NC(=O)[C@@H](N)Cc1ccc(O)cc1)[C@@H](C)O)[C@@H](C)O)[C@@H](C)CC)[C@@H](C)CC)C(C)C)C(=O)N[C@@H](C)C(=O)NCC(=O)NCC(=O)N1CCC[C@H]1C(=O)N[C@@H](CO)C(=O)N[C@@H](CO)C(=O)NCC(=O)N[C@@H](C)C(=O)N1CCC[C@H]1C(=O)N1CCC[C@H]1C(=O)N1CCC[C@H]1C(=O)N[C@@H](CO)C(N)=O [Compound 15] (H-Y[Aib]EGTFTSDYSI[Aib]LDK([AEEA-AEEA-γGlu-Nonadecanoyl(19-PO3H2)])IAQQAFVQWLIAGGPSSGAPPPS-NH2) |  |  | 11.0 | 7.3 |  |  |  |  |  |
| CC[C@H](C)[C@H](NC(=O)[C@H](CC(C)C)NC(=O)[C@H](Cc1c[nH]c2ccccc12)NC(=O)[C@H](CCC(N)=O)NC(=O)[C@@H](NC(=O)[C@H](Cc1ccccc1)NC(=O)[C@H](C)NC(=O)[C@H](CCCCNC(=O)COCCOCCNC(=O)COCCOCCNC(=O)CC[C@H](NC(=O)CCCCCCCCCCCCCCCCCCP(=O)(O)O)C(=O)O)NC(=O)[C@H](CCC(N)=O)NC(=O)[C@H](C)NC(=O)[C@@H](NC(=O)[C@H](CCCCN)NC(=O)[C@H](CC(=O)O)NC(=O)[C@H](CC(C)C)NC(=O)C(C)(C)NC(=O)[C@@H](NC(=O)[C@H](CO)NC(=O)[C@H](Cc1ccc(O)cc1)NC(=O)[C@H](CC(=O)O)NC(=O)[C@H](CO)NC(=O)[C@@H](NC(=O)[C@H](Cc1ccccc1)NC(=O)[C@@H](NC(=O)CNC(=O)[C@H](CCC(=O)O)NC(=O)C(C)(C)NC(=O)[C@@H](N)Cc1ccc(O)cc1)[C@@H](C)O)[C@@H](C)O)[C@@H](C)CC)[C@@H](C)O)C(C)C)C(=O)N[C@@H](C)C(=O)NCC(=O)NCC(=O)N1CCC[C@H]1C(=O)N[C@@H](CO)C(=O)N[C@@H](CO)C(=O)NCC(=O)N[C@@H](C)C(=O)N1CCC[C@H]1C(=O)N1CCC[C@H]1C(=O)N1CCC[C@H]1C(=O)N[C@@H](CO)C(N)=O [Compound 23] (H-Y[Aib]EGTFTSDYSI[Aib]LDKTAQK([AEEA-AEEA-γGlu-Nonadecanoyl(19-PO3H2)])AFVQWLIAGGPSSGAPPPS-NH2) |  | stastistically significantly lower total liver lipids than tirzepatide |  |  | stastistically significantly better than tirzepatide |  |  |  |  |
| CC[C@H](C)[C@H](NC(=O)[C@H](CC(C)C)NC(=O)[C@H](Cc1c[nH]c2ccccc12)NC(=O)[C@H](CCC(N)=O)NC(=O)[C@@H](NC(=O)[C@H](Cc1ccccc1)NC(=O)[C@H](C)NC(=O)[C@H](CCCCNC(=O)COCCOCCNC(=O)COCCOCCNC(=O)CC[C@H](NC(=O)CCCCCCCCCCCCCCCCCCP(=O)(O)O)C(=O)O)NC(=O)[C@H](CCC(N)=O)NC(=O)[C@H](C)NC(=O)[C@@H](NC(=O)[C@H](CCCCN)NC(=O)[C@H](CC(=O)O)NC(=O)[C@H](CC(C)C)NC(=O)C(C)(C)NC(=O)[C@@H](NC(=O)[C@H](CO)NC(=O)[C@H](Cc1ccc(O)cc1)NC(=O)[C@H](CC(=O)O)NC(=O)[C@H](CO)NC(=O)[C@@H](NC(=O)[C@H](Cc1ccccc1)NC(=O)[C@@H](NC(=O)CNC(=O)[C@H](CCC(=O)O)NC(=O)C(C)(C)NC(=O)[C@@H](N)Cc1ccc(O)cc1)[C@@H](C)O)[C@@H](C)O)[C@@H](C)CC)C(C)C)C(C)C)C(=O)N[C@@H](CCCNC(=N)N)C(=O)NCC(=O)NCC(=O)N1CCC[C@H]1C(=O)N[C@@H](CO)C(=O)N[C@@H](CO)C(=O)NCC(=O)N[C@@H](C)C(=O)N1CCC[C@H]1C(=O)N1CCC[C@H]1C(=O)N1CCC[C@H]1C(=O)N[C@@H](CO)C(N)=O [Compound 25] (H-Y[Aib]EGTFTSDYSI[Aib]LDKVAQK([AEEA-AEEA-γGlu-Nonadecanoyl(19-PO3H2)])AFVQWLIRGGPSSGAPPPS-NH2) |  |  | 39.4 | >5.9 |  | 6930 | 176 | > 10000 | 1690 |
